# Numbering of substitutions follows the chain as printed; changes in the protein carry UniProt numbers. This is one part of the list.
# T1: RBFOX1 RRM (Homo sapiens, UniProt Q9NWB1 109-208)
# T1 sequence: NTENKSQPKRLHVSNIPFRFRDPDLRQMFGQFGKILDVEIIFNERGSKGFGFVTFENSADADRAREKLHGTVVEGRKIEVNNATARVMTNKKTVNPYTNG
# B1: GACGGAU (DNA:RNA)
# RNA: GGGAGACCGGAAUUCAGAUUGUCCGACGGAUUUAAAUCCCGUCGUAGCCACCA
# DNA 1: CAATCTGAATTCCGGTCTCCC
# DNA 2: TGGTGGCTACGACGGGATT
# B2: AUGUAGG (DNA:RNA)
# RNA: GGGAGACCGGAAUUCAGAUUGUCCAUGUAGGUUAAAUCCCGUCGUAGCCACCA
# DNA 1: CAATCTGAATTCCGGTCTCCC
# DNA 2: TGGTGGCTACGACGGGATT
# B3: GCAAGAA (DNA:RNA)
# RNA: B1 RNA with A26C, C27A, G28A, U31A
# DNA 1: CAATCTGAATTCCGGTCTCCC
# DNA 2: TGGTGGCTACGACGGGATT
# B4: GGGACUU (DNA:RNA)
# RNA: B1 RNA with A26G, C27G, G28A, G29C, A30U
# DNA 1: CAATCTGAATTCCGGTCTCCC
# DNA 2: TGGTGGCTACGACGGGATT
# B5: ACGUAGA (DNA:RNA)
# RNA: B2 RNA with U26C, G31A
# DNA 1: CAATCTGAATTCCGGTCTCCC
# DNA 2: TGGTGGCTACGACGGGATT
# B6: AUGUAAA (DNA:RNA)
# RNA: B2 RNA with G30A, G31A
# DNA 1: CAATCTGAATTCCGGTCTCCC
# DNA 2: TGGTGGCTACGACGGGATT
# B7: GAUUGCU (DNA:RNA)
# RNA: B1 RNA with C27U, G28U, A30C
# DNA 1: CAATCTGAATTCCGGTCTCCC
# DNA 2: TGGTGGCTACGACGGGATT
# B8: CACAACC (DNA:RNA)
# RNA: B1 RNA with G25C, G28A, G29A, A30C, U31C
# DNA 1: CAATCTGAATTCCGGTCTCCC
# DNA 2: TGGTGGCTACGACGGGATT
# B9: UUAACGA (DNA:RNA)
# RNA: B2 RNA with A25U, G27A, U28A, A29C, G31A
# DNA 1: CAATCTGAATTCCGGTCTCCC
# DNA 2: TGGTGGCTACGACGGGATT
# B10: CGGCCUU (DNA:RNA)
# RNA: B2 RNA with A25C, U26G, U28C, A29C, G30U, G31U
# DNA 1: CAATCTGAATTCCGGTCTCCC
# DNA 2: TGGTGGCTACGACGGGATT
# B11: AACUCUG (DNA:RNA)
# RNA: B2 RNA with U26A, G27C, A29C, G30U
# DNA 1: CAATCTGAATTCCGGTCTCCC
# DNA 2: TGGTGGCTACGACGGGATT
# B12: GUGGUCU (DNA:RNA)
# RNA: B1 RNA with A26U, C27G, G29U, A30C
# DNA 1: CAATCTGAATTCCGGTCTCCC
# DNA 2: TGGTGGCTACGACGGGATT
# B13: UCAAGGG (DNA:RNA)
# RNA: B2 RNA with A25U, U26C, G27A, U28A, A29G
# DNA 1: CAATCTGAATTCCGGTCTCCC
# DNA 2: TGGTGGCTACGACGGGATT
# B14: CGUGAGA (DNA:RNA)
# RNA: B2 RNA with A25C, U26G, G27U, U28G, G31A
# DNA 1: CAATCTGAATTCCGGTCTCCC
# DNA 2: TGGTGGCTACGACGGGATT
# B15: CGUUUGU (DNA:RNA)
# RNA: B2 RNA with A25C, U26G, G27U, A29U, G31U
# DNA 1: CAATCTGAATTCCGGTCTCCC
# DNA 2: TGGTGGCTACGACGGGATT
# B16: AAAGGAC (DNA:RNA)
# RNA: B1 RNA with G25A, C27A, U31C
# DNA 1: CAATCTGAATTCCGGTCTCCC
# DNA 2: TGGTGGCTACGACGGGATT
# B17: UUAAAUU (DNA:RNA)
# RNA: B2 RNA with A25U, G27A, U28A, G30U, G31U
# DNA 1: CAATCTGAATTCCGGTCTCCC
# DNA 2: TGGTGGCTACGACGGGATT
# B18: UACGAUU (DNA:RNA)
# RNA: B1 RNA with G25U, G29A, A30U
# DNA 1: CAATCTGAATTCCGGTCTCCC
# DNA 2: TGGTGGCTACGACGGGATT
# B19: CAUCCCA (DNA:RNA)
# RNA: B1 RNA with G25C, C27U, G28C, G29C, A30C, U31A
# DNA 1: CAATCTGAATTCCGGTCTCCC
# DNA 2: TGGTGGCTACGACGGGATT
# B20: CGGAUUA (DNA:RNA)
# RNA: B2 RNA with A25C, U26G, U28A, A29U, G30U, G31A
# DNA 1: CAATCTGAATTCCGGTCTCCC
# DNA 2: TGGTGGCTACGACGGGATT
# B21: GCGAGCC (DNA:RNA)
# RNA: B1 RNA with A26C, C27G, G28A, A30C, U31C
# DNA 1: CAATCTGAATTCCGGTCTCCC
# DNA 2: TGGTGGCTACGACGGGATT
# B22: AAUACUG (DNA:RNA)
# RNA: B2 RNA with U26A, G27U, U28A, A29C, G30U
# DNA 1: CAATCTGAATTCCGGTCTCCC
# DNA 2: TGGTGGCTACGACGGGATT
# B23: UAUUAAA (DNA:RNA)
# RNA: B2 RNA with A25U, U26A, G27U, G30A, G31A
# DNA 1: CAATCTGAATTCCGGTCTCCC
# DNA 2: TGGTGGCTACGACGGGATT
# B24: GAGGUUG (DNA:RNA)
# RNA: B1 RNA with C27G, G29U, A30U, U31G
# DNA 1: CAATCTGAATTCCGGTCTCCC
# DNA 2: TGGTGGCTACGACGGGATT
# B25: CUCUGGG (DNA:RNA)
# RNA: B2 RNA with A25C, G27C, A29G
# DNA 1: CAATCTGAATTCCGGTCTCCC
# DNA 2: TGGTGGCTACGACGGGATT
# B26: ACUUACU (DNA:RNA)
# RNA: B2 RNA with U26C, G27U, G30C, G31U
# DNA 1: CAATCTGAATTCCGGTCTCCC
# DNA 2: TGGTGGCTACGACGGGATT
# B27: UAUACAG (DNA:RNA)
# RNA: B1 RNA with G25U, C27U, G28A, G29C, U31G
# DNA 1: CAATCTGAATTCCGGTCTCCC
# DNA 2: TGGTGGCTACGACGGGATT
# B28: GCCAGAG (DNA:RNA)
# RNA: B1 RNA with A26C, G28A, U31G
# DNA 1: CAATCTGAATTCCGGTCTCCC
# DNA 2: TGGTGGCTACGACGGGATT
# B29: GGAUCUU (DNA:RNA)
# RNA: B1 RNA with A26G, C27A, G28U, G29C, A30U
# DNA 1: CAATCTGAATTCCGGTCTCCC
# DNA 2: TGGTGGCTACGACGGGATT
# B30: AGGUUAU (DNA:RNA)
# RNA: B2 RNA with U26G, A29U, G30A, G31U
# DNA 1: CAATCTGAATTCCGGTCTCCC
# DNA 2: TGGTGGCTACGACGGGATT
# B31: AACCUCC (DNA:RNA)
# RNA: B1 RNA with G25A, G28C, G29U, A30C, U31C
# DNA 1: CAATCTGAATTCCGGTCTCCC
# DNA 2: TGGTGGCTACGACGGGATT
# Molecular target: T1, RBFOX1 RRM
# Assay: EMSA; HiTS-Eq, 1 nM pool, 10 min; buffer printed only for the single-RNA assays: 10 mM Tris pH 7.5, 150 mM NaCl, 3.4 mM EDTA, 0.001% NP-40, 30 C
# Details: tags: His6 N-terminal (pET28a); label: 5' 32P
# In short: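 Relative association constants, normalised to the cognate motif, were derived by comparing read counts of each RNA species with those of the control reaction. The RNA sequenced was the free fraction, separated by 8% native PAGE after a 10 min equilibration in 50 µL of 1 nM 5′-radiolabelled RNA (7 randomized nucleotides) with increasing concentrations of purified wild-type or mutant RbFox RRM.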
row,Binder,binding signal
1,B1,0.0218 KA relative to UGCAUGU
2,B2,0.0127 KA relative to UGCAUGU
3,B3,0.0141 KA relative to UGCAUGU
4,B4,0.0311 KA relative to UGCAUGU
5,B5,0.0086 KA relative to UGCAUGU
6,B6,0.00618 KA relative to UGCAUGU
7,B7,0.0199 KA relative to UGCAUGU
8,B8,0.00147 KA relative to UGCAUGU
9,B9,0.00827 KA relative to UGCAUGU
10,B10,0.0133 KA relative to UGCAUGU
11,B11,0.0104 KA relative to UGCAUGU
12,B12,0.0195 KA relative to UGCAUGU
13,B13,0.00574 KA relative to UGCAUGU
14,B14,0.016 KA relative to UGCAUGU
15,B15,0.0183 KA relative to UGCAUGU
16,B16,0.00793 KA relative to UGCAUGU

row,Binder,binding signal
1,B17,0.00371 KA relative to UGCAUGU
2,B18,0.00504 KA relative to UGCAUGU
3,B19,0.000386 KA relative to UGCAUGU
4,B20,0.0153 KA relative to UGCAUGU
5,B21,0.0153 KA relative to UGCAUGU
6,B22,0.00562 KA relative to UGCAUGU
7,B23,0.00573 KA relative to UGCAUGU
8,B24,0.0283 KA relative to UGCAUGU
9,B25,0.00302 KA relative to UGCAUGU
10,B26,0.00189 KA relative to UGCAUGU
11,B27,0.00697 KA relative to UGCAUGU
12,B28,0.0163 KA relative to UGCAUGU
13,B29,0.0133 KA relative to UGCAUGU
14,B30,0.00944 KA relative to UGCAUGU
15,B31,0.00309 KA relative to UGCAUGU
